Data published in PubChem BioAssay AID651820 (National Center for Advancing Translational Sciences (NCATS), 2012).
Hit rate of the full screen: of about 340,000 compounds, about 12,000 (3.5%) were called active. This list was built around the results that the source calls inconclusive (neither active nor inactive); the mix of calls is not that of the screen. The call rests on the fitted dose curve; in most records, active means well fitted inhibition curve with a large enough effect; inconclusive means small, poorly fitted or top-dose-only effect, or another doubt; inactive means no such curve, though single readings can be large or run the other way. No potency is given beside an inconclusive call; the fits are too rough.

Test: qHTS Assay for Inhibitors of Hepatitis C Virus (HCV)
Conditions: Huh7.5.1 HCVcc-Cre (HCVcc is cell-culture hepatitis C virus) infection, luciferase reporter, 44 h; activity change, negative = inhibition: at 41.8 µM (top of the series)
Summary of the method: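 After 44 h co-culture of compound, cells and HCVcc-Cre (~0.5 moi), substrate is added for 15 min at room temperature and luciferase measured over 15 sec. Cells were seeded at 1,000/well and pre-cultured 4 h.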
On the % scale 0 is the no-effect control and ±100 the full control effect; potency means the concentration at half of the fitted maximal effect; tags describe the fitted curve by direction and shape.

Q: With O=C(O)C1C2C=CC(C2)C1C(=O)N1CCc2ccccc21 (stereo unspecified) as the compound, how does the Potency read?
A: inconclusive [inhibitor, full curve, poor fit]

Q: With Cc1cc(C(=O)CN2C(=O)NC3(CCCCC3)C2=O)c(C)n1Cc1ccc2c(c1)OCO2 as the compound, how does the “activity change, negative = inhibition” value read?
A: inactive: -15.4%

Q: For C/C(CCc1oc2ccc(Cl)cc2c1-c1ccc(C)o1)=N\O, which Potency is on record?
A: inconclusive [inhibitor, partial curve, poor fit]

Q: With COc1cc2c(cc1OC)CN(CC(=O)Nc1ccccc1C(=O)NC1CC1)CC2 as the compound, how does the “activity change, negative = inhibition” value read?
A: inactive: -0.268%

Q: Which Potency does the source give for CCOc1ccccc1N(C(=O)c1snc(C(N)=O)c1N)C(C(=O)NCc1ccccc1)c1ccc(O)cc1 (stereo unspecified) here?
A: inconclusive [inhibitor, partial curve]

Q: For C/C(=N\Nc1cccc2cccnc12)c1ccccn1, which Potency is on record?
A: active: 6.31 µM

Q: For CC(C)(C)C(=O)N1CCN(c2ncnc3scc(-c4ccccc4)c23)CC1, which Potency is on record?
A: inconclusive [inhibitor, single point]

Q: For COc1ccccc1NC(=O)c1ccc(NC(=O)COC(=O)c2ccc(O)cc2)cc1, which Potency is on record?
A: inconclusive [inhibitor, partial curve]

Q: Which Potency does the source give for CCCSC1=C(C#N)C2(CCCCC2)C(C#N)=C(N)N1 here?
A: inconclusive [inhibitor, single point]

Q: Which Potency does the source give for O=C(CCNC(=O)c1ccc(Cl)cc1)Nc1cccc(S(=O)(=O)N2CCCCCC2)c1 here?
A: inconclusive [inhibitor, partial curve]

Q: Which “activity change, negative = inhibition” value does the source give for COc1ccc2[nH]cc(CCNCc3cccnc3)c2c1 here?
A: inactive: 7.03%

Q: For CCOc1ccc(S(=O)(=O)N2CCC(C(=O)Nc3cccc(NC(C)=O)c3)CC2)cc1, which “activity change, negative = inhibition” value is on record?
A: inactive: 2.08%

Q: For O=C(CNC(=O)/C(=C/c1ccccc1)NC(=O)c1ccc(Br)cc1)OCc1ccccc1, which “activity change, negative = inhibition” value is on record?
A: inactive: 9.06%

Q: For CC1=NN(C(=O)c2ccc(Br)cc2)C(O)(C(F)(F)OC(F)(F)F)C1 (stereo unspecified), which “activity change, negative = inhibition” value is on record?
A: inactive: 8.94%

Q: With O=C(N/N=C/c1ccc(Cl)cc1)c1ccc2c(c1)OCO2 as the compound, how does the Potency read?
A: inconclusive [inhibitor, single point]

Q: For COc1cccc2c1[C@@H]1CN(CCCCn3c(=O)[nH]c4c(sc5ncc(-c6ccccc6)nc54)c3=O)C[C@@H]1CO2, which Potency is on record?
A: active: 3.55 µM

Q: Which Potency does the source give for COc1ccc(C(=O)Nc2nc3ccccc3[nH]2)cc1S(=O)(=O)N1CCCC1 here?
A: inconclusive [inhibitor, single point]

Q: For COC(=O)c1ccc(NC(=O)Nc2ccc([N+](=O)[O-])cc2)cc1, which Potency is on record?
A: inconclusive [inhibitor, single point]

Q: With O=C(c1cc2nc(-c3ccco3)cc(C(F)(F)F)n2n1)N1CCN(Cc2ccccc2)CC1 as the compound, how does the “activity change, negative = inhibition” value read?
A: inactive: -4.46%

Q: For O=C(Nc1ccccc1)c1ccccc1OCc1cccc([N+](=O)[O-])c1, which Potency is on record?
A: inconclusive [inhibitor, full curve]

Q: For O=C(Nc1nonc1NC(=O)c1cccs1)c1cccs1, which Potency is on record?
A: active: 3.98 µM

Q: Which Potency does the source give for O=c1c2ccccc2nc(/C=C/c2ccc(O)cc2)n1CCc1ccccc1 here?
A: active: 12.6 µM

Q: With COc1c(S(=O)(=O)NCCN2CCOCC2)ccc(Cl)c1Cl as the compound, how does the “activity change, negative = inhibition” value read?
A: inactive: 9.7%

Q: For Cc1c(CCCl)c(Cl)n2c(nc3ccccc32)c1C#N, which Potency is on record?
A: inconclusive [inhibitor, partial curve]

Q: Which Potency does the source give for Cc1cccc(/C=N/Nc2cc(N3CCOCC3)nc(N3CCOCC3)n2)c1 here?
A: active: 6.31 µM

Q: Which Potency does the source give for Cc1ccc(OCc2cc(C(=O)NC(C)Cc3cnccn3)no2)cc1C (stereo unspecified) here?
A: inconclusive [inhibitor, single point]

Q: With O=C(/C=C/c1ccc2c(c1)OCO2)Nc1nc(-c2ccc(F)cc2)cs1 as the compound, how does the Potency read?
A: inconclusive [inhibitor, partial curve]

Q: Which “activity change, negative = inhibition” value does the source give for COc1ccc(C2(C)NC(=O)N(CC3CCCCC3)C2=O)cc1 (stereo unspecified) here?
A: inactive: 8.59%

Q: With COc1cc(-c2cc(-c3nnco3)c3ccccc3n2)cc(OC)c1OC as the compound, how does the Potency read?
A: inconclusive [inhibitor, single point]

Q: With CCOc1cc(C(=O)NC2CC(C)(C)NC(C)(C)C2)cc(OCC)c1OCC as the compound, how does the Potency read?
A: inconclusive [inhibitor, single point]

Q: Which “activity change, negative = inhibition” value does the source give for CCOC(=O)C1CCN(C(=O)C2COc3ccccc3O2)CC1 (stereo unspecified) here?
A: inactive: 12.6%

Q: Which Potency does the source give for O=C(NCCc1c[nH]c2ccccc12)c1ccc(Cl)cc1 here?
A: inconclusive [inhibitor, partial curve]

Q: With Cc1ccc(-n2nc3ccc(NC(=O)/C=C/c4ccco4)cc3n2)cc1C as the compound, how does the Potency read?
A: inconclusive [inhibitor, partial curve, poor fit]

Q: Which Potency does the source give for Cn1c(N2CCCCC2)nc2c1c(=O)n(Cc1cccc(Br)c1)c(=O)n2C here?
A: inconclusive [inhibitor, partial curve]

Q: For N#Cc1ccccc1NC(=O)COC(=O)c1ccc2c(c1)OCCO2, which “activity change, negative = inhibition” value is on record?
A: inactive: -5.11%

Q: For CC1CCC(NC(=O)C2CCN(c3c4c(nc5ncnn35)CCC4)CC2)CC1 (stereo unspecified), which Potency is on record?
A: inconclusive [inhibitor, full curve]

Q: Which “activity change, negative = inhibition” value does the source give for Cc1cc(N(CN2CCCC2=O)C(=O)c2ccccc2)no1 here?
A: inactive: 8.06%

Q: Which Potency does the source give for Cc1snc(SCC(=O)c2ccc([N+](=O)[O-])cc2)c1C#N here?
A: inconclusive [inhibitor, single point]

Q: Which Potency does the source give for CCOc1ccc(C(=O)NC(=S)Nc2ccccc2OC)cc1[N+](=O)[O-] here?
A: inconclusive [inhibitor, single point]

Q: With COc1ccc(C(=O)C2CCCN(C(=O)CCc3ccccn3)C2)c(C)c1 (stereo unspecified) as the compound, how does the Potency read?
A: inconclusive [inhibitor, partial curve]

Q: With CC(C)(C)C1CCc2c(sc(N)c2C(N)=O)C1 (stereo unspecified) as the compound, how does the “activity change, negative = inhibition” value read?
A: inactive: -20.3%

Q: Which Potency does the source give for CCNC(=O)c1ccccc1NC(=O)c1cccc(S(=O)(=O)N2CCC(C)CC2)c1 here?
A: active: 10 µM

Q: Which Potency does the source give for Cc1nc2ncccn2c1-c1csc(Nc2ccc(O)cc2)n1 here?
A: inconclusive [inhibitor, partial curve]

Q: For CCC1(c2ccccc2)NC(=O)N(CC(=O)Nc2ccc3c(C)cc(=O)oc3c2)C1=O (stereo unspecified), which Potency is on record?
A: inconclusive [inhibitor, single point]

Q: With Cc1ccc(C(=O)NC(=S)Nc2cccc3nsnc23)cc1 as the compound, how does the “activity change, negative = inhibition” value read?
A: inactive: 7.08%

Q: For CS(=O)(=O)c1ccc(-c2sc3cc4c(cc3c2C(=O)NN2CCOCC2)OCO4)cc1, which “activity change, negative = inhibition” value is on record?
A: inactive: 23.7%
